Experimental data reported in ChEMBL document CHEMBL4888484, “Replenishing the malaria drug discovery pipeline: Screening and hit evaluation of the MMV Hit Generation Library 1 (HGL1) against asexual blood stage Plasmodium falciparum ,using a nano luciferase reporter read-out” (2022).
Screen size: about 150,000 compounds; about 540 (0.36%) showed an effect of 50% or more. The list shows a part of the results.

These compounds were tested on Plasmodium falciparum (assay: Primary screen in NF54 nanoGlo assay, in single point, at 2uM, 72h; a lower Z score goes with more inhibition). Settings: timepoint 72 hour.
Type: functional, Erythrocyte

Structure (SMILES) | % Inhibition [%] | Z score
Cc1cc(C)n(-c2nnc3c4ccccc4n(CC#N)c3n2)n1 | -2 | 0.33
CCc1cc(C(=O)N2CCC[C@@H]2CO)on1 | -1 | 0.27
Cc1[nH]c2ccc(CNc3ccc(C(=O)N(C)C)cn3)cc2c1C | -8 | 1.09
CCn1cc(CN(C)C(=O)Cc2nonc2C)c(C)n1 | -6 | 0.99
CC(=O)NCc1csc(C2CCN(S(=O)(=O)c3ccc(Cl)cc3)CC2)n1 | -5 | 0.67
CS(=O)(=O)N1C[C@H]2CC[C@@H](C1)N(CC(=O)N1CCc3ccccc31)C2 | -9 | 1.92
O=C(c1cnn2c1CCCC2)N1CCc2ccc(F)cc2C1 | -4 | 0.65
CC(C)CNC(=O)CN(C)C1CCCN(C(=O)c2cn3c(n2)CC(C)CC3)C1 (stereo not drawn) | -2 | 0.29
CCc1cc(N(CCCO)Cc2ccccn2)n2ncnc2n1 | -1 | 0.15
O=C([C@H]1CCCS(=O)(=O)C1)N1CC(Cc2ccoc2)C1 | 0 | 0.04
Cc1noc(CNC(=O)[C@H]2CCC(F)(F)C2)n1 | 34 | -3.85
CCc1[nH]ncc1C(=O)Nc1ccc(OCC(F)(F)F)c(C)c1 | 17 | -2.24
O=C(Nc1ccc(Cl)c(F)c1)c1cc2nc(N3CCCCC3)sc2s1 | -4 | 0.65
Cc1nccc(NC(=O)c2c(F)cccc2Br)n1 | 2 | -0.33
CC(C)CN(CC(=O)N(CCc1ccccc1)Cc1ccco1)S(C)(=O)=O | 9 | -1.75
COc1cc(OC)nc(-c2cccc(C(=O)N3CCN(C)C(=O)C3)c2)n1 | -10 | 1.47
COC[C@H](C)NC(=O)c1ccc2oc(C(C)C)nc2c1 | -17 | 1.46
CCS(=O)(=O)N1CCN(c2ccc(C3CC3)nn2)CC1 | 11 | -1.41
CN1CCO[C@H](C(=O)N2CCC(c3ncc(C(F)(F)F)[nH]3)CC2)C1 | -4 | 0.48
Fc1ccc2nc(-c3cnc(-c4ccccc4)nc3)[nH]c2c1 | -2 | 0.21
Cc1n[nH]c(C)c1CC(=O)N[C@@H](C)c1ncnn1C | -2 | 0.39

Structure (SMILES) | % Inhibition [%] | Z score
O=S(=O)(CCCN1CCN(CCO)CC1)c1ccc(Cl)cc1 | 0 | 0.06
CCOCC(=O)N1CCC[C@@H]1Cn1ccnc1 | 5 | -0.87
Cc1cc(N2CCCN(c3ccc4nncn4n3)CC2)n2ncnc2n1 | -9 | 1.04
CC(=O)NCc1cc(Cl)cc(Cl)c1OC(F)F | -13 | 1.56
NC(=O)Cc1nc([C@H]2CCS(=O)(=O)C2)n(-c2ccc3c(c2)CCC3)n1 | -7 | 1.32
O=C(Nc1cc(NC(=O)C2CCCOC2)nc(-c2ccccc2)n1)C1CCCOC1 (stereo not drawn) | 0 | 0.02
COc1ccc2ncn(C[C@H]3CCCOC3)c(=O)c2c1 | -12 | 1.53
CCc1ncn2ccnc(N3CCN(C(=O)c4ccco4)CC3)c12 | 2 | -0.18
CCOc1cc(Cl)ccc1CNC(=O)c1c[nH]c(C)cc1=O | -10 | 1.88
CC1CN(C(=O)c2cc3nccnc3cc2F)CC[S+]([O-])C1 (stereo not drawn) | -8 | 0.86
CCN(C)CC1CCN(C(=O)C2CCCN(C(=O)c3ccc(F)cc3)C2)C1 (stereo not drawn) | 3 | -0.41
Cc1ccc(-c2cc(=O)[nH]c(N3CCN(C(c4ccccc4)c4ccccc4)CC3)n2)cc1 | -3 | 0.33
CCS(=O)(=O)N(CCN1CCCCC1)C1CN(C(=O)c2cc(OC)cc(OC)c2)C1 | 1 | -0.2
C=C1C(C(=O)Nc2c(C)cccc2CC)[C@H]1C(=O)Nc1c(C)cccc1CC (stereo partly drawn) | 12 | -1.57
Cc1csc(C2(NCc3ccoc3C)CCOCC2)n1 | -14 | 1.94
COc1cccc(CC(=O)N2CCc3c(c(-c4nncn4C)nn3C)C2)c1 | 5 | -0.62
COC(C(=O)NC1CCCN(CC(F)(F)F)C1)c1cnn(C)c1 (stereo not drawn) | -6 | 1.14
CCn1ncc(CN2CC[C@H](CNC(=O)N3CCCC3)[C@@H](O)C2)c1C | 0 | 0.06
CN(C(=O)CN1CC[C@@]2(CCCN(Cc3ccccc3)C2)C1)C1CC1 | -10 | 1.66
c1ccc(-c2noc(-c3cc(C4CC4)nc4ccccc34)n2)nc1 | -2 | 0.19
COCCc1nnc2n1CCC1(CC2)CCN(C(=O)CCS(=O)(=O)c2ccccc2)CC1 | -11 | 1.04

Structure (SMILES) | % Inhibition [%] | Z score
CCOc1ccncc1S(=O)(=O)N1CCOc2ncc(C)cc21 | 8 | -1.35
CC(=O)Nc1ccccc1-c1noc(-c2cc(C)oc2C)n1 | -13 | 2
CC(C)CNC(=O)c1cc2cc(NC(=O)c3ccccc3Cl)ccc2n1Cc1ccc(C(C)(C)C)cc1 | -6 | 0.67
O=C1COc2c(F)cc(NC(=O)N[C@H]3COC[C@@H]3N3CCCCC3)cc2N1 | 13 | -1.72
Cc1ccc(-n2ccnc2)c(C(=O)NC[C@H](O)c2ccco2)c1 | -5 | 0.97
Cc1nc(NC(=O)CCc2ccncc2)n(C)n1 | -9 | 1.31
CC(C)(C)OC(=O)N[C@@H](COCc1ccccc1)C(=O)O | -15 | 2.93
Cc1nc(C(C)C)ncc1C(=O)N(C)Cc1snnc1C | -12 | 1.15
CC(C)c1nsc(N2CCS(=O)(=O)C(C)(C)C2)n1 | -15 | 1.72
CCN1CCCN(C(=O)CC2CCCC2)CC12CCOCC2 | -5 | 0.62
O=C(NCC(CO)CC1CCCCC1)[C@@H]1CCCO1 (stereo partly drawn) | -7 | 0.8
COc1ccc(/C=C/CN2CCC(CCC(=O)NCc3ccc(F)cc3)CC2)cc1 | -20 | 1.84
Cn1cnc2cc(OC(=O)c3cccc4ccccc34)ccc21 | -17 | 3.25
CC(C)N(CC(=O)N1c2ccccc2-n2cccc2[C@H]1c1cccc(Cl)c1)C(=O)C(c1ccccc1)c1ccccc1 | -6 | 1.24
Cc1nc(CNc2nc(-c3ccccn3)nc3c2CCNCC3)no1 | -3 | 0.47
CCNC(=O)[C@H]1CCN(Cc2cnc(CCOC)nc2)C1 | 1 | -0.2
CN1C(C(=O)N2CCN(c3ccc(F)cc3)CC2)=CC(c2ccc3c(c2)OCO3)=NS1(=O)=O | -14 | 2.74
O=C(c1ccc2[nH]cnc2c1)N1CC(S(=O)(=O)C2CCCCC2)C1 | -6 | 1.15
CCOC(=O)c1c(S(=O)(=O)N2CCC[C@H](C(=O)N3CCCCC3)C2)c(C)n(C)c1C | -8 | 1.36
FC(F)(F)c1cccc(-c2ccc(CNC[C@H]3CCCO3)o2)c1 | 3 | -0.39
O=C(COC[C@H]1CCCO1)NCc1ccc(-c2cccc(Cl)c2)o1 | -10 | 0.96

Structure (SMILES) | % Inhibition [%] | Z score
O=C(c1ccc2ncccc2c1)N1CCC2(CC1)NCCc1c2[nH]c2ccccc12 | -15 | 1.97
CN(C(=O)c1ccn2nnnc2c1)[C@@H](CCc1ccccc1)C(F)F | 1 | -0.11
CN1CCN(C(=O)c2cc3nc(-c4ccc(Cl)c(Cl)c4)cc(C(F)(F)F)n3n2)CC1 | -1 | 0.18
CC(C)(C)OC(=O)N1CCC[C@H]1C(=O)OCCNS(C)(=O)=O | 8 | -0.83
Cc1n[nH]c2c1CN(C(=O)c1ccc(=O)n(C)c1)CC2 | -5 | 0.89
Cc1c(C(=O)O)nnn1-c1ccc(-c2ccccc2)cc1 | 3 | -0.48
CCOC1CC(NC(=O)c2cc(OC)c(OC)c(OC)c2)C1(C)C (stereo not drawn) | 1 | -0.2
CN1CCC[C@@]2(CCN(C(=O)NCc3ccccc3-c3cnn(C)c3)C2)C1 | -8 | 0.85
CN1c2cc(C(=O)Nc3cccc(Cl)c3)ccc2C(=O)N2CCCCC[C@H]21 | 9 | -1.57
Cn1nc(-c2nc(C3CCCC3)nn2[C@H]2CCS(=O)(=O)C2)ccc1=O | -17 | 3.11
Cc1cc(C(C)NC(=O)C2CNC(=O)N2)c(C)s1 (stereo not drawn) | -8 | 0.99
CC(C)=CCO[C@H]1CCOC[C@H]1NC(=O)c1ccccc1N1CCCC1 | -3 | 0.4
CC(C)c1nnc(NC(=O)c2cccnc2Oc2ccc(F)cc2Br)s1 | -31 | 3.58
O=C(c1cc(-c2ccco2)[nH]n1)N1CCc2ccccc2C1 | -20 | 3.35
Cc1nn(-c2ccc3nncn3n2)c(C)c1CCC(=O)NC1CCCCC1 | 0 | 0.03
O=C1NC(=O)C2(CCN(C(=O)c3cc(Cl)c[nH]3)CC2)N1 | -9 | 0.89
c1ccc(-c2nc3nc(-c4cccs4)cn3nc2-c2ccccc2)cc1 | 6 | -0.73
O=C(CCCc1nc(C2CC2)no1)Nc1ccc(-n2cnnn2)cc1 | -10 | 1.13
Cc1nn(CCNS(=O)(=O)N(C)C)c(C)c1-c1ccsc1 | 24 | -2.99
C[C@H](NC(=O)OC(C)(C)C)c1nc(-c2cnn(C)c2)cs1 | 4 | -0.5
O=S(=O)(c1ccc(-c2cc(C(F)(F)F)on2)o1)N1CCN(c2cccc(Cl)c2)CC1 | -9 | 1.56
